This note sets out measurements from patent US20250154219A1, “PEPTIDE ANALOGS” (Adepthera LLC, priority 2017, published 2025).

What all share (assay type): cell-based
The target of experiment [1] is T1, CLR/RAMP1 receptor (Homo sapiens, UniProt O60894+Q16602). In words: CLR/RAMP1 cAMP receptor-activation assay (agonist mode).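 Further: Dose–response over 10 threefold dilutions from 1.0 µM, run in duplicate, luminescent cAMP detection (RLU), activity scaled between vehicle control (0%) and maximal control (100%).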
The target in experiment [2] is T1, CLR/RAMP1 receptor. As to the kind of experiment: CLR/RAMP1 cAMP assay, antagonist mode (CGRP-stimulated). The note with it: antagonist mode. Background: Cyclic AMP is a second messenger, typically raised through Gs and lowered through Gi signalling.
The target in a further experiment is CLR/RAMP2 receptor (Homo sapiens, UniProt O60895+Q16602). In words: CLR/RAMP2 arrestin assay, antagonist mode (ADM-stimulated). Particulars: antagonist mode.
CLR/RAMP2 receptor, sequence (Q16602 23-461): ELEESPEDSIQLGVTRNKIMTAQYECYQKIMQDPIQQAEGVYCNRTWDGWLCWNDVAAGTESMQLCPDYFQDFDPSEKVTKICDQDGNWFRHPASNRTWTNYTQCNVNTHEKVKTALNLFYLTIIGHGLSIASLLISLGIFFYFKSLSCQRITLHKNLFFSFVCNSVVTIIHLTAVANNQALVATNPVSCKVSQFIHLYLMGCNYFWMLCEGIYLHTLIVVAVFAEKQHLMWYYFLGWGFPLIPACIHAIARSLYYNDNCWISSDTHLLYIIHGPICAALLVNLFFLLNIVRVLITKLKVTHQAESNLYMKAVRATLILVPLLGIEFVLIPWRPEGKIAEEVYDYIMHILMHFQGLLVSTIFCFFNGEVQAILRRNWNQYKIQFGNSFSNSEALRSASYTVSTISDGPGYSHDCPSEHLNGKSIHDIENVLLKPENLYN
CLR/RAMP2 receptor, sequence (O60895 43-175): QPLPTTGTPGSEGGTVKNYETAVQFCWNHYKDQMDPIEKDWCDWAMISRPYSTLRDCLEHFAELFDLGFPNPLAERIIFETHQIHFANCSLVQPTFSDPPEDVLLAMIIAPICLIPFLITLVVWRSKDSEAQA

T1 sequence (Q16602 23-461): as the sequence (Q16602 23-461) above
T1 sequence (O60894 27-148): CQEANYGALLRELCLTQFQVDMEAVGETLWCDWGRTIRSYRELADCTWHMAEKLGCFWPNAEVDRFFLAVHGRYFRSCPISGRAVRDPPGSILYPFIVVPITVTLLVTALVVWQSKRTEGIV

Consider `CCCCCCCCCCCCCCCC(=O)N[C@@H](Cc1ccccc1)C(=O)NCC(=O)N[C@H]1CSSC[C@@H](C(=O)N[C@H](C(=O)N[C@H](C(=O)N[C@@H](CCC(N)=O)C(=O)N[C@@H](CCCCN)C(=O)N[C@@H](CC(C)C)C(=O)N[C@@H](C)C(=O)N[C@@H](Cc2c[nH]cn2)C(=O)N[C@@H](CCCNC(=N)N)C(=O)N[C@@H](CC(C)C)C(=O)N[C@@H](Cc2c[nH]c3ccccc23)C(=O)N[C@@H](CCC(N)=O)C(=O)N[C@@H](CC(C)C)C(=O)N[C@@H](CCSC)C(=O)NCC(=O)N2CCC[C@H]2C(=O)N[C@@H](CC(=O)O)C(=O)N[C@@H](CCCCN)C(=O)N[C@@H](CC(=O)O)C(=O)N[C@@H](CC(N)=O)C(=O)N[C@H](C(=O)N[C@@H](C)C(=O)N2CCC[C@H]2C(=O)N[C@@H](CCCNC(=N)N)C(=O)N[C@@H](CO)C(=O)N[C@@H](CCCCN)C(=O)N[C@H](C(=O)N[C@@H](CO)C(=O)N2CCC[C@H]2C(=O)N[C@@H](CCC(N)=O)C(=O)NCC(=O)N[C@@H](Cc2ccc(O)cc2)C(N)=O)[C@@H](C)CC)C(C)C)C(C)C)[C@@H](C)O)NC(=O)[C@H]([C@@H](C)O)NC(=O)CNC(=O)[C@H](Cc2ccccc2)NC(=O)[C@H](CCCNC(=N)N)NC1=O` [SEQ ID NO: 105], for which, at CLR/RAMP1 receptor [1], the “agonistic potency for CLR/RAMP1 and/or CLR/RAMP2 receptors, in words” value is given as “did not exhibit increases in potency”.

As for `CSCC[C@H](NC(=O)[C@H](CC(C)C)NC(=O)[C@H](CCC(N)=O)NC(=O)[C@H](Cc1c[nH]c2ccccc12)NC(=O)[C@H](CC(C)C)NC(=O)[C@H](CCCNC(=N)N)NC(=O)[C@H](Cc1c[nH]cn1)NC(=O)[C@H](CO)NC(=O)[C@H](CC(C)C)NC(=O)[C@H](CC(N)=O)NC(=O)[C@H](CCC(N)=O)NC(=O)[C@@H](NC(=O)[C@H](CCC(N)=O)NC(=O)[C@@H]1CSSC[C@H](NC(=O)CNC(=O)[C@@H](NC(C)=O)C(C)C)C(=O)N[C@@H](C(C)C)C(=O)N[C@@H](CC(C)C)C(=O)NCC(=O)N[C@@H]([C@@H](C)O)C(=O)N1)C(C)C)C(=O)NCC(=O)N1CCC[C@H]1C(=O)N[C@@H](C)C(=O)NCC(=O)N[C@@H](CCCNC(=N)N)C(=O)N[C@@H](CCC(N)=O)C(=O)N[C@@H](CC(=O)O)C(=O)N[C@@H](CO)C(=O)N[C@@H](C)C(=O)N1CCC[C@H]1C(=O)N[C@H](C(=O)N[C@@H](CC(=O)O)C(=O)N1CCC[C@H]1C(=O)N[C@@H](CO)C(=O)N[C@@H](CO)C(=O)N1CCC[C@H]1C(=O)N[C@@H](Cc1c[nH]cn1)C(=O)N[C@@H](CO)C(=O)N[C@@H](Cc1ccc(O)cc1)C(N)=O)C(C)C` [SEQ ID NO: 52, reference compound], the “agonistic potency for CLR/RAMP1 and/or CLR/RAMP2 receptors, in words” value at CLR/RAMP1 receptor [1] was “low potency ligands”.

As for `CCCCCCCCCCCCCCCC(=O)NCCCC[C@H](NC(C)=O)C(=O)NCC(=O)N[C@H]1CSSC[C@@H](C(=O)N[C@H](C(=O)N[C@H](C(=O)N[C@@H](Cc2c[nH]cn2)C(=O)N[C@@H](CCCNC(=N)N)C(=O)N[C@@H](CC(C)C)C(=O)N[C@@H](C)C(=O)NCC(=O)N[C@@H](CC(C)C)C(=O)N[C@@H](CC(C)C)C(=O)N[C@@H](CO)C(=O)N[C@@H](CCCNC(=N)N)C(=O)N[C@@H](CO)C(=O)NCC(=O)NCC(=O)N[C@H](C(=O)N[C@H](C(=O)N[C@@H](CCCCN)C(=O)N[C@@H](CC(N)=O)C(=O)N[C@@H](CC(N)=O)C(=O)N[C@@H](Cc2ccccc2)C(=O)N[C@H](C(=O)N2CCC[C@H]2C(=O)N[C@H](C(=O)N[C@@H](CC(N)=O)C(=O)N[C@H](C(=O)NCC(=O)N[C@@H](CO)C(=O)N[C@@H](CCCCN)C(=O)N[C@@H](C)C(=O)N[C@@H](Cc2ccccc2)C(N)=O)C(C)C)[C@@H](C)O)C(C)C)C(C)C)C(C)C)[C@@H](C)O)C(C)C)NC(=O)[C@H]([C@@H](C)O)NC(=O)[C@H](C)NC(=O)[C@H]([C@@H](C)O)NC(=O)[C@H](CC(=O)O)NC1=O` [SEQ ID NO: 74], the “agonistic potency for CLR/RAMP1 and/or CLR/RAMP2 receptors, in words” value at CLR/RAMP1 receptor [1] was “did not affect the characteristics of CGRP activity”.

Take `CCCCCCCCCCCCCCCC(=O)N[C@@H](C)C(=O)N[C@H]1CSSC[C@@H](C(=O)N[C@H](C(=O)N[C@H](C(=O)N[C@@H](Cc2c[nH]cn2)C(=O)N[C@@H](CCCNC(=N)N)C(=O)N[C@@H](CC(C)C)C(=O)N[C@@H](C)C(=O)NCC(=O)N[C@@H](CC(C)C)C(=O)N[C@@H](CC(C)C)C(=O)N[C@@H](CO)C(=O)N[C@@H](CCCNC(=N)N)C(=O)N[C@@H](Cc2ccccc2)C(=O)N[C@H](C(=O)N[C@@H](CC(=O)O)C(=O)N[C@@H](CCCCN)C(=O)N[C@@H](CC(=O)O)C(=O)N[C@@H](CCCCN)C(=O)N[C@@H](CC(=O)O)C(=O)N[C@@H](CC(N)=O)C(=O)N[C@H](C(=O)N[C@@H](C)C(=O)N2CCC[C@H]2C(=O)N[C@@H](CCCNC(=N)N)C(=O)N[C@@H](CO)C(=O)N[C@@H](CCCCN)C(=O)N[C@H](C(=O)N[C@@H](CO)C(=O)N2CCC[C@H]2C(=O)N[C@@H](CCC(N)=O)C(=O)NCC(=O)N[C@@H](Cc2ccc(O)cc2)C(N)=O)[C@@H](C)CC)C(C)C)[C@@H](C)O)[C@@H](C)O)C(C)C)NC(=O)[C@H]([C@@H](C)O)NC(=O)[C@H](C)NC(=O)[C@H]([C@@H](C)O)NC(=O)[C@H](CC(=O)O)NC1=O` [SEQ ID NO: 104]: the “agonistic potency for CLR/RAMP1 and/or CLR/RAMP2 receptors, in words” value on CLR/RAMP1 receptor [1] is on record as “did not exhibit increases in potency”.

As for `CC[C@H](C)[C@H](NC(=O)[C@H](CCC(N)=O)NC(=O)[C@H](Cc1c[nH]cn1)NC(=O)[C@H](C)NC(=O)[C@H](CC(C)C)NC(=O)[C@H](CCCCN)NC(=O)[C@H](CCC(N)=O)NC(=O)[C@@H](NC(=O)[C@@H](NC(=O)[C@@H]1CSSC[C@H](NC(=O)CNC(=O)[C@H](CCCCN)NC(C)=O)C(=O)N[C@@H](CCCNC(=N)N)C(=O)N[C@@H](Cc2ccccc2)C(=O)NCC(=O)N[C@@H]([C@@H](C)O)C(=O)N1)[C@@H](C)O)C(C)C)C(=O)N[C@@H](Cc1ccc(O)cc1)C(=O)N[C@@H](CCC(N)=O)C(=O)N[C@@H](Cc1ccccc1)C(=O)N[C@H](C(=O)N[C@@H](CC(=O)O)C(=O)N[C@@H](CCCCN)C(=O)N[C@@H](CC(=O)O)C(=O)N[C@@H](CO)C(=O)N[C@@H](C)C(=O)N1CCC[C@H]1C(=O)N[C@H](C(=O)N[C@@H](CC(=O)O)C(=O)N1CCC[C@H]1C(=O)N[C@@H](CO)C(=O)N[C@@H](CO)C(=O)N1CCC[C@H]1C(=O)N[C@@H](Cc1c[nH]cn1)C(=O)N[C@@H](CO)C(=O)N[C@@H](Cc1ccc(O)cc1)C(N)=O)C(C)C)[C@@H](C)O` [SEQ ID NO: 93], the “agonistic potency for CLR/RAMP1 and/or CLR/RAMP2 receptors, in words” value on CLR/RAMP1 receptor [1] was “did not exhibit increases in potency”.

Regarding `CCCCCCCCCCCCCCCC(=O)NCCCC[C@H](NC(=O)COCCOCCN)C(=O)N[C@H](C(=O)N[C@@H](CCC(N)=O)C(=O)N[C@@H](CCCCN)C(=O)N[C@@H](CC(C)C)C(=O)N[C@@H](C)C(=O)N[C@@H](Cc1c[nH]cn1)C(=O)N[C@@H](CCC(N)=O)C(=O)N[C@H](C(=O)N[C@@H](Cc1ccc(O)cc1)C(=O)N[C@@H](CO)C(=O)N[C@@H](C)C(=O)N1CCC[C@H]1C(=O)N[C@H](C(=O)N[C@@H](CC(=O)O)C(=O)N1CCC[C@H]1C(=O)N[C@@H](CO)C(=O)N[C@@H](CO)C(=O)N1CCC[C@H]1C(=O)N[C@@H](Cc1c[nH]cn1)C(=O)N[C@@H](CO)C(=O)N[C@@H](Cc1ccc(O)cc1)C(N)=O)C(C)C)[C@@H](C)CC)C(C)C` [SEQ ID NO: 114], the “CLR/RAMP1 Max Activity % of positive control (antagonist)” value on CLR/RAMP1 receptor [2] is reported as 101 % of positive control. The “CLR/RAMP2 Max Activity % of positive control (antagonist)” value on CLR/RAMP2 receptor is 87 % of positive control.
